Assay results from PubChem BioAssay AID624417 (National Center for Advancing Translational Sciences (NCATS), 2012).
About 6,400 (1.6%) of roughly 410,000 compounds were called active. The shares of active, inactive and inconclusive entries below differ from those in the screen. Calls come from the whole dose curve; as a rule, active = well fitted inhibition curve with a large enough effect; inconclusive = small, poorly fitted or top-dose-only effect; inactive = no such curve, though single readings can be large or run the other way. No potency is given beside an inconclusive call; the fits are too rough.

molecular target: Glucagon-like peptide 1 receptor (Homo sapiens) (UniProt P43220); assay: qHTS of GLP-1 Receptor Inverse Agonists (Inhibition Mode); conditions: HEK293 GLP-1R CRE-luciferase, luminescence, 24 h, GLP-1R form is constitutively active; activity change, negative = inhibition: at 38.3 µM (top of the series) unless noted; note: nearly all actives have a fitted effect of over 55% in size
In short: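 Inverse agonism was detected as reduced cAMP-driven luciferase luminescence after 24 h compound treatment. The cells were HEK293 clones expressing constitutively active human GLP-1R with the reporter. Reporter-only and GPR119 cell lines served as counterscreen controls.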
% is set by controls: 0 for no effect and ±100 for the full control effect; potency is the fitted concentration of half-maximal effect; tags give direction and shape of the fitted curve.

Sequence of UniProt P43220 (P43220 whole entry, looked up): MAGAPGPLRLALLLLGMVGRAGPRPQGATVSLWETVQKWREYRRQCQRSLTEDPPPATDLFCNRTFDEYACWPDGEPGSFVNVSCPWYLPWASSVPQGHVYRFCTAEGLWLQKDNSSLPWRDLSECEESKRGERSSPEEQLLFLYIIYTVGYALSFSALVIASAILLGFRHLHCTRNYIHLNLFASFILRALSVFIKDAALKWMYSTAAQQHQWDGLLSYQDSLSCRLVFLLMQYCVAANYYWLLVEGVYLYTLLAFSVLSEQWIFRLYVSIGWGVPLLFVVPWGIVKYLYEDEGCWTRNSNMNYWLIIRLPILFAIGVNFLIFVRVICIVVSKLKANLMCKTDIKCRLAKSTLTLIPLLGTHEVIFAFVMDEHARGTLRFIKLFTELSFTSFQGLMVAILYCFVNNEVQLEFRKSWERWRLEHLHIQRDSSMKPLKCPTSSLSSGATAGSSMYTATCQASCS

Structure (SMILES) | activity change, negative = inhibition | Potency
NS(=O)(=O)c1cccc(NC(=O)CSc2nc3ccc(Cl)cc3[nH]2)c1 | inactive: 20.7% [at 0.307 µM] | 
O=C(NC1CCN(Cc2ccccc2)CC1)c1ccc(S(=O)(=O)NCc2ccco2)cc1 |  | inconclusive [inhibitor, full curve, poor fit]
CCOC(=O)c1c(Cc2cccc(Cl)c2)c[nH]c1C |  | inconclusive [inhibitor, partial curve, poor fit]
O=C(N/N=C/C=C\c1ccccc1[N+](=O)[O-])c1cc(-c2ccc3ccccc3c2)n[nH]1 |  | inconclusive [inhibitor, partial curve, poor fit]
OC(COc1cccc(OCC(O)CN2CCCC2)c1)CN1CCCC1 (stereo not drawn) |  | inconclusive [inhibitor, partial curve, poor fit]
Cc1ccc(-c2nc(CS(=O)CC(=O)NCCCN3CCN(Cc4ccccc4)CC3)c(C)o2)cc1 (stereo not drawn) |  | inconclusive [inhibitor, partial curve]
Cc1cccc(N(C(=O)c2ccc(CN3CCOCC3)o2)C(C(=O)NC(C)(C)C)c2ccc(F)cc2)c1 (stereo not drawn) |  | inconclusive [inhibitor, full curve, poor fit]
O=C(c1cn(-c2ccccc2)nc1-c1ccc(Cl)cc1)N1CCOCC1 |  | inconclusive [inhibitor, partial curve, poor fit]
CC(=O)N1CCCc2cc(S(=O)(=O)N(Cc3ccccc3)C(C)C)ccc21 |  | inconclusive [inhibitor, full curve]
COc1ccc(C(=O)N/N=C/c2ccc(N(C)c3ccccc3)cc2)cc1 |  | inconclusive [inhibitor, partial curve, poor fit]
COc1ccc(-n2c(CCC(=O)O)ccc2-c2ccccc2)c(OC)c1 |  | inconclusive [inhibitor, single point]
COc1ccc(CCNCC(O)COc2cccc(Br)c2)cc1 (stereo not drawn) | inactive: -11.2% [at 7.66 µM] | 
Cc1cccc(C(O)c2ncc(-c3ccc(Cl)cc3)[nH]2)c1C (stereo not drawn) |  | inconclusive [inhibitor, partial curve, poor fit]
CCn1cc(C(=O)NCc2ccc(F)cc2)c(=O)c2cc(S(=O)(=O)N(C)C)ccc21 |  | inactive
Cc1ccc(SCCSc2ncccn2)cc1 |  | inconclusive [inhibitor, single point]
O=C(/C=C/c1ccc(Cl)cc1)Nc1nc(-c2cccs2)ns1 |  | inactive
CCc1nc(C)ccc1OCC(=O)O |  | inactive
CC1(C(=O)NCc2ccccc2)Cc2c(-c3ccccc3)ccnc2O1 (stereo not drawn) |  | inconclusive [inhibitor, full curve, poor fit]
